Measured values reported in PubChem BioAssay (NCATS).
The inconclusive results got no clear call from the source; some entries with a clear call stand among them for comparison. Potencies of inconclusive entries are left out as doubtful fits. Activity calls are given as the source filed them. Calls come from the whole dose curve; as a rule, active = well fitted inhibition curve with a large enough effect; inconclusive = small, poorly fitted or top-dose-only effect; inactive = flat fitted curve, though single readings scatter.

experiment: Cytometry Cell-Based qHTS for Inhibitors of the mTORC1 Signaling Pathway in MEF cells (AID 2668); details: mTORC1 pathway readout; series mostly up to 38.3 µM
Excerpt: NIH Molecular Libraries Probe Production Centers Network [MLPCN]
NIH Chemical Genomics Center [NCGC]
Assay Submitter (PI): Blenis, John; Hoffman, Greg; Harvard University
NCGC Assay Overview: The mammalian target of rapamycin (mTOR) is an intracellular serine/threonine kinase Aberrant regulation of mTOR signaling plays a causative role in a number of human diseases, including cancer, benign tumors such as lymphangioleiomyomatosis (LAM) and Tuberous Sclerosis Complex (TSC), and metabolic diseases such as diabetes and obesity. This project aims to identify inhibitors of ribosomal protein S6 (rpS6) phosphorylation. The phosphorylation of rpS6 is a key event downstream of mTOR activation. The assay uses a phospho-specific antibody of phospho-rpS6 to detect inhibitors of mTOR activation. Mutations in the Tsc1 and Tsc2 genes are the underlying genetic lesions responsible for TSC, causing constitutive activation of the mTORC1 pathway and leading to profound effects on cell metabolism. Aberrant metabolism in cancer has recently received significant attention as a target to develop therapeutic agents in the treatment of cancer.1 As Tsc2-/- cells have lost the ability to respond to energy and growth factor deprivation, these cells are unable to properly down regulate cellular biosynthetic processes in response to metabolic stress, and are thus extremely sensitive to glucose deprivation-induced death.2 A central goal of this project is to explore the unique cell survival and metabolic properties of cells with Tsc1 or Tsc2 by screening for compounds that selectively target the Tsc2-/- MEFs by screening both Tsc2-/- and WT MEF cell lines. We hope to better understand these aspects of TSC physiology in order to exploit them for therapeutic benefit.
NCGC Acumen Assay Protocol:
For quantitative high throughput analysis of mTORC1 signaling, we developed a cell-based assay for immuno-fluorescence based detection of rpS6 phosphorylation on the Acumen Explorer that will be used a platform for the primary small molecule screen. Mouse embryonic fibroblasts (MEFs) are cultured in 1536-well plates using DMEM + 10% FBS. Twenty-four hrs after plating, test compounds (solubilized in DMSO) are delivered and incubated with the cells for 24 hrs at 37 degree Celsius. Following the incubation, media with compound is aspirated and the cells are fixed in 4% paraformaldehyde (PFA) containing PBS + 0.2% TX-100. Next, PFA is aspirated, cells are washed two times with PBS plus 0.2% TX-100 and the cells are blocked for 1 hr at room temperature (blocking buffer: LiCOR Blocking Buffer plus 0.2% TX-100). This is followed by aspiration and staining with Alexa-488 conjugated-phospho-rpS6 Ser235/236 antibody for 2 hours at room temperature (Cell Signaling Technology # 4803, 1:50 dilution in blocking buffer). Cells are washed two times with PBS plus 0.2% TX-100, and stained with 10 uM propidium iodide (PI) for 20-25 minutes for cell number measurement (1:500 dilution of Hoescht staining is also added for IN Cell imaging). The plates are scanned on the Acumen Explorer laser scanning instrument (TTP Labtech) using the 488nm laser for simultaneous excitation of the Alexa-488 and PI. The fluorescence emission from the Alexa-488 conjugated rpS6 phospho-235/236 antibody staining is selected using a […] band pass filter. Fluorescence emission from the PI stain is selected using a 575-640 nm band pass filter. The normalized phospho-S6 staining is calculated as the ratio of the integrated Alexa 488 intensity divided by the integrated PI intensity for the single concentration rapamycin control (7.5 nM) and DMSO columns. […] Inhibition of the pathway is defined based on the normalized phospho-S6 intensity in rapamycin treated cells. […]
Potency is the fitted concentration of half-maximal effect; tags give direction and shape of the fitted curve.

| Compound | Potency |
| --- | --- |
| N=C(N)c1ccc(OCCCCCOc2ccc(C(=N)N)cc2)cc1 (tested in a mixture with another compound) | active: 10.4 µM |
| Cc1cccc(C2CN(C)CCc3c2cc(O)c(O)c3Cl)c1 (configuration not stated) | inconclusive [falling, single point] |
| CN(C)CCCc1cc(C(=O)Nc2ccc(-c3ccncc3)cc2)ccc1O | inactive |
| CC1=C(/C=C/C(C)=C/C=C/C(C)=C\C(=O)O)C(C)(C)CCC1 | inconclusive [falling, single point] |
| CC(=O)O[C@H]1CC2(C)[C@@H](C[C@@H](O)[C@H]3[C@@]4(C)CC[C@@H](O)[C@@H](C)[C@@H]4CC[C@@]32C)C1=C(CCC=C(C)C)C(=O)O (some centres not stated) | inactive |
| O=c1cc(-c2ccccc2F)[nH]c2cc3c(cc12)OCO3 | inconclusive [falling, full curve] |
| CN1CCc2cc(O)c(O)cc2C(c2ccccc2)C1 (configuration not stated) | inconclusive [falling, single point] |
| CCC1(O)CC2CN(CCc3c([nH]c4ccccc34)[C@@](C(=O)OC)(c3cc4c(cc3OC)N(C)C3[C@]45CCN4CC=C[C@@](CC)([C@@H](OC(C)=O)[C@]3(O)C(=O)OC)[C@H]45)C2)C1 (some centres not stated) | inconclusive [falling, full curve, poor fit] |
| N#C/C(=C\c1c[nH]c2ccccc12)C(=O)c1ccc(O)c(O)c1 | inconclusive [falling, single point] |
| NCCNS(=O)(=O)c1cccc2c(Cl)cccc12 | inconclusive [falling, single point] |
| C/C(=C\c1ccc(C(=O)O)cc1)c1ccc2c(c1)C(C)(C)CCC2(C)C | inconclusive [falling, full curve, poor fit] |
| CCN(CC)CCOC(=O)c1cc(Cl)c(N)cc1OC | inactive |
| C=CCN1CCc2cc(O)c(O)cc2C(c2ccccc2)C1 (configuration not stated) | inconclusive [falling, single point] |
| COCc1nc2c([nH]1)c(=O)n(C)c(=O)n2CC(C)C | inactive |
| O=C(OCCN1CCOCC1)C1(c2ccccc2)CCCCC1 | inactive |
| C=CCN1CCc2c(cc(O)c(O)c2Cl)C(c2ccccc2)C1 (configuration not stated) | inconclusive [falling, single point] |
| CCCCCCN(CCCCCC)C(=O)Cc1c(-c2ccc(F)cc2)[nH]c2ccccc12 | inconclusive [falling, single point] |
| CCCCN1CCC(n2c(=O)[nH]c3ccccc32)CC1 | inactive |
| CCCCCCCCCCC(C)(C)C(=O)Nc1c(OC)cc(OC)cc1OC | inactive |
| CCCCCC(O)CCCC(=O)O (configuration not stated) | inactive |
| C[C@](Cc1ccc(O)c(O)c1)(NN)C(=O)O | inconclusive [falling, single point] |
| CN1CCc2cc(Cl)c(O)cc2[C@@H](c2ccccc2)C1 | inactive |
| CC(C)ON([C@@H](C(=O)NO)C(C)C)S(=O)(=O)c1ccc(-c2ccccc2)cc1 | inconclusive [falling, single point] |
| C[N+]1(C)CCC(OC(=O)C(c2ccccc2)c2ccccc2)CC1 | inconclusive [falling, partial curve] |
| N=c1ccn2c(n1)O[C@H]1[C@H](O)[C@@H](CO)O[C@H]12 | inconclusive [falling, full curve] |
| O=c1cc(-c2ccccc2)[nH]c2nc(Cl)ccc12 | inconclusive [falling, full curve] |
| CC(COc1ccc(/C=C/c2ccccc2)cc1)[N+](C)(C)C (configuration not stated) | inconclusive [falling, single point] |
